# Data reported in PMC4336329 (PLoS ONE, 2015).
# The campaign covered roughly 310,000 compounds. About 14,000 (4.5%) showed an effect of 50% or more. The effect is printed as a negative number. This is one part of the list.
# Molecular target: human ether-à-go-go-related gene (hERG) potassium channel (human, UniProt Q12809)
# Assay: primary screen, population patch clamp on CHO cells stably expressing hERG
# 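Further: peak tail current of the secondary pulse compared with the same well before compound.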
# Chain of human ether-à-go-go-related gene (hERG) potassium channel (Q12809 whole entry, looked up): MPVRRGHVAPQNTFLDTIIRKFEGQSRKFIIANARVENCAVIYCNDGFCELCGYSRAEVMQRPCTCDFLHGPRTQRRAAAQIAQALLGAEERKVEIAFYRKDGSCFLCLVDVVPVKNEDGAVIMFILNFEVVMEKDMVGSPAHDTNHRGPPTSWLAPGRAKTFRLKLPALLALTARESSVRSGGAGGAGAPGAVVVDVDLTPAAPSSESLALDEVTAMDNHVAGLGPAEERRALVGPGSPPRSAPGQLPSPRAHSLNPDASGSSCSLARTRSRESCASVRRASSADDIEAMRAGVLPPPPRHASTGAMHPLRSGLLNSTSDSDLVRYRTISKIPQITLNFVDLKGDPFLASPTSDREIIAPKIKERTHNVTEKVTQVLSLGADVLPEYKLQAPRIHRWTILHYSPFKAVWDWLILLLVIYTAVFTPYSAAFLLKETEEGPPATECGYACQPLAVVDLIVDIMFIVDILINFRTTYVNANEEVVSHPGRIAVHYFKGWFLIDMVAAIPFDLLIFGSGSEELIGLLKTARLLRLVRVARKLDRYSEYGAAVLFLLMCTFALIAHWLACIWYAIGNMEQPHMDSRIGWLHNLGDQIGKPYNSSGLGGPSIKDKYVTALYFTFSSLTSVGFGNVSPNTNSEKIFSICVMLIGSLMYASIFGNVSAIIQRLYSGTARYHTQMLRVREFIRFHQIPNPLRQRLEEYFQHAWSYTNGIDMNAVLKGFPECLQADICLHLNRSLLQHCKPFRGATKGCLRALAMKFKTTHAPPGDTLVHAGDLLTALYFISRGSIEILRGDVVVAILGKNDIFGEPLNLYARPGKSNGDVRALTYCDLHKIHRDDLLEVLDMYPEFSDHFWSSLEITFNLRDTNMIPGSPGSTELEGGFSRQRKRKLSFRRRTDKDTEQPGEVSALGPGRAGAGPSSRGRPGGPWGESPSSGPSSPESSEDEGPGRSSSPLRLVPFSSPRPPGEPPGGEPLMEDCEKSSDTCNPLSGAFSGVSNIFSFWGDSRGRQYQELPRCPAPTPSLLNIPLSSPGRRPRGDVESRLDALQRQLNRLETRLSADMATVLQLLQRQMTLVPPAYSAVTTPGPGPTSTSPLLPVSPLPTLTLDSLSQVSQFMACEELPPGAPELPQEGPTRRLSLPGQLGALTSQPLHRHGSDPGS
row,Structure (SMILES),"hERG current change (%, negative = inhibition) at 10uM"
1,COc1ccc(CC(=O)NNC2=Nc3cccc4cccc2c34)cc1OC,1.79%
2,COc1cc2[nH]c(=O)n(Cc3ccccc3Cl)c(=O)c2cc1OC,-0.4%
3,NC(=O)C(c1ccccc1)c1ncc(C(F)(F)F)cc1Cl (centres unmarked),4.88%
4,Cc1cc2c(cc1C)NC(c1nc3ccccc3[nH]1)C1=C(CC(C)(C)CC1=O)N2 (centres unmarked),11.2%
5,O=C(NCc1cccc(C(F)(F)F)c1)C1CCCN(c2cnccn2)C1 (centres unmarked),-61%
6,O=C1CC(N2CCOCC2)C(=O)N1c1cccc(Cl)c1 (centres unmarked),1.18%
7,COc1ccc(CNC(=O)C2CCCN2S(=O)(=O)c2ccc(Cl)cc2)cc1 (centres unmarked),-26.5%
8,O=C(O)CP(=O)(O)c1ccc(Cl)cc1,-3.27%
9,O=C(Nc1cccnc1Cl)c1cccnc1Cl,2.03%
10,Cl.O=C(NC12CC3CC(CC(C3)C1)C2)c1ccc(=O)oc1,1.45%
11,Cc1ccc(S(=O)(=O)N2CCC(=O)N(CCOCc3ccccc3)CC2)cc1,-6.26%
12,COc1ccccc1N1C(=O)c2ccccc2NC1c1cc(OC)c(OC)c(OC)c1 (centres unmarked),5.13%
13,COc1ccc2c(C)cc(SCC(=O)Nc3cc(C(N)=O)cc(C(N)=O)c3)nc2c1,2.44%
14,COCCN1CCn2c(nc3cc(NC(C)=O)ccc32)C1,19.3%
15,Cc1cc(C)nc(NC2=NCC(=O)N2c2cc(Cl)cc(Cl)c2)n1,-14.8%
16,COC(=O)c1c(C(=O)OC)c(C)n(Cc2ccco2)c1C,-2.22%
17,O=C(NNc1ccc(F)cc1F)c1c(F)cccc1Cl,16.8%
18,Cc1ccc(N(CC(=O)O)S(C)(=O)=O)cc1,15%
19,Clc1cccc(Cl)c1Cn1cnc2c(NCc3ccco3)ncnc21,-3.72%
20,COc1ccc(NC(=O)CS(=O)c2ccc(Cl)c(Cl)c2)cc1 (centres unmarked),6.27%
21,CN(CC(=O)Nc1ccccc1Cl)C(=O)c1cc(-c2cccs2)nn1-c1ccccc1,12.2%
22,Cn1c(=NC(=O)c2ccc3c(c2)OCCO3)sc2cc(S(C)(=O)=O)ccc21,38.9%

row,Structure (SMILES),"hERG current change (%, negative = inhibition) at 10uM"
1,CC(C)c1ccc(C(=O)Nc2cccnc2)cc1,3.63%
2,Cc1nnc(SCc2ccccc2)nc1-c1ccccc1,-11%
3,CC(=O)c1ccc(OC(=O)N2CCOCC2)cc1,2.08%
4,OC(COCc1cccs1)CN1CCN(c2ccccn2)CC1 (centres unmarked),-52.5%
5,CCOc1ccccc1C1NC(=O)NC(C)=C1C(=O)OC1CCCCC1 (centres unmarked),10.8%
6,CC(NC(=O)COC(=O)c1ccc(Cl)cc1O)c1ccc(F)cc1 (centres unmarked),7.92%
7,CC12CN3CN(C1)CC(C)(C3)C2=NO,8.67%
8,NCCC(=O)NCCc1cnc[nH]1,15.2%
9,COc1ccc(CCC(N)=O)cc1OC,11.1%
10,COc1cc(S(=O)(=O)n2nc(C)cc2C)ccc1Cl,-2.43%
11,COc1ccc(OC)c(CNC(=O)C2CCCN(c3ncnc4c3nc3n4CCCCC3)C2)c1 (centres unmarked),-59%
12,CCOC(=O)C(CC(=O)c1ccccc1)CC(=O)c1ccccc1,-12.5%
13,CCCn1c(=O)c(C(=O)NCc2ccccn2)c(O)c2ccccc21,-11.1%
14,COc1cc(NC(=S)N2CCN(S(C)(=O)=O)CC2)cc(OC)c1,5.84%
15,O=C(N/N=C/c1cccc(Oc2ccc([N+](=O)[O-])cc2[N+](=O)[O-])c1)c1cncc(Br)c1,-32.1%
16,O=C(NC1CC1)c1nc2c(nnn2Cc2ccccc2Cl)c(=O)[nH]1,0.681%
17,CC1(C)C=Cc2c(c3c(c4c(=O)c(-c5ccc(O)cc5)coc24)OC(C)(C)CC3)O1,14.2%
18,C/C=C/c1ccc(OC(C)=O)c(OC)c1,14%
19,O=S(=O)(NC1CC1)c1ccc(S(=O)(=O)N(Cc2ccccn2)C2CC2)cc1,-29.1%
20,COc1ccc(NC(=O)Cn2nnc(C(=O)NCCc3ccc(OC)c(OC)c3)c2N)cc1,-4.59%
21,COc1ccccc1C(=O)NCC(=O)N=Nc1c(O)n(C(C)C)c2ccccc12,-7.32%
22,O=C(NCc1nc2ccccc2[nH]1)C1=C[C@H](c2csc3ccccc23)C[C@H](OCc2ccc(CO)cc2)O1,-4.12%
